Results reported in PubChem BioAssay AID651661 (Broad Institute, 2012).
Hit rate of the full screen: of about 350,000 compounds, about 2,300 (0.66%) were called active. Inconclusive results, whose numbers are uncertain, are shown with a selection of clear calls.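 How the source made its calls: active means mean inhibition of at least 50% after viability correction, with every replicate also passing that limit; inconclusive means mean reaches 50% but only one of two replicates passes; inactive means the rest.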

Assay: blockers of EWS/Fli transcriptional output – A673 cells, NR0B1 luciferase, luminescence, MLPCN library, primary screen (AID 651661);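 further: firefly luciferase signal divided by Alamar Blue viability fluorescence both relative to DMSO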
Details: A673 NR0B1-luciferase reporter, viability-normalised; at 12.6 µM; stronger effect = higher value

| Compound | inhibition |
| --- | --- |
| COc1ccc(Cl)cc1NC(=O)CN(C)CC(=O)Nc1ccccc1N1CCOCC1 | active: 62.1% |
| CC(C)C(=O)Nc1ccc2c(c1)C(=O)N(C)[C@@H]1CC[C@@H](CC(=O)NCc3ccc(F)cc3)O[C@@H]1CO2 | inactive: 1.22% |
| COc1cc(C(=O)N2CCN(c3ccccc3)CC2)c2ccccc2n1 | inconclusive: 50.8% |
| CCOC(=O)c1c(-c2ccc(-c3ccccc3)cc2)csc1NC(=O)CNCCN(C)C | inconclusive: 50.9% |
| CC(C)=CCn1c2ccc(NC(=O)NCc3ccc(F)cc3)cc2c(=O)n1C | inconclusive: 51.2% |
| O=C(NN=C1CCCC1)c1[nH]c2ccc(Cl)cc2c1-c1ccccc1 | inconclusive: 51.4% |
| COc1cc2c(c(OC)c1OC)-c1ccc(OC)c(=O)cc1[C@@H](NC(C)=O)CC2 | active: 62.5% |
| COc1cccc(/C=C2\SC(=S)N(CCCC(=O)N3CCCCC3CCO)C2=O)c1 (stereo not given) | inconclusive: 50.9% |
| Cc1nc(Nc2ccc(C(=O)O)cc2)sc1-c1ccccc1 | inconclusive: 52% |
| CCOC(=O)c1c(NC(=O)/C=C/C(=O)O)sc(C)c1-c1ccc(C)c(C)c1 | inconclusive: 59.8% |
| COc1ccc(C(=O)NNC(=O)c2ccccn2)cc1 | active: 62.2% |
| CC[n+]1c(C=C2C=C(C)OC(C)=C2)sc2ccccc21 | inconclusive: 51.6% |
| COc1ccc(C2=NN(C(=O)COC(=O)c3ccc(S(C)(=O)=O)c([N+](=O)[O-])c3)C(c3ccco3)C2)cc1 (stereo not given) | inactive: 5.86% |
| O=C(C1CC1)N1CC(=O)N2[C@H](CO)[C@H](c3ccc(-c4ccccc4F)cc3)[C@H]2C1 | inactive: 2.12% |
| O=C1Nc2cc(C(=O)NCCN3CCCCCC3)ccc2S/C1=C\c1ccccc1 | active: 59.6% |
| CCN1/C(=C/c2ccc3cc(C)cc(C)c3[n+]2CC)Sc2cc(C)ccc21 | active: 75.7% |
| Cc1ccc(C2CC(c3cccs3)=NN2C(=O)CCl)cc1 (stereo not given) | active: 64.8% |
| COc1ccc(C(=O)Nc2ccc(C(=O)NCCc3ccccc3)cc2)cc1 | inactive: -3.65% |
| Cc1ccc(S(=O)(=O)N2CCCCC2CCNC(=O)C(=O)NCc2ccco2)cc1 (stereo not given) | inconclusive: 51.4% |
| CCSc1ccc(-c2cc(NC=O)c3ncc(-c4cccc(C(=O)NCCN(C)C)c4)n3c2)cc1 | inconclusive: 62.3% |
| C[C@@H]1CN([C@H](C)CO)S(=O)(=O)c2ccc(C#CC3CC3)cc2O[C@H]1CN(C)Cc1ccccn1 | inconclusive: 56.8% |
| CCOC(=O)C(=Cc1ccc(Br)cc1)C(=O)OCC | inconclusive: 50.2% |
| CC(=O)N1CCCC(c2cc(C(=O)Nc3ccccc3)no2)C1 (stereo not given) | active: 74.9% |
| COC(=O)C(CC#Cc1ccc2c(c1)[C@]1(C(=O)N2)[C@H](c2ccccc2OCCO)N2[C@H](c3ccccc3)[C@H](c3ccccc3)OC(=O)[C@H]2[C@@H]1C(=O)NC[C@H](O)c1ccccc1)C(=O)OC | inconclusive: 50.3% |
| O=C(CCCOc1ccc(Cl)cc1Cl)NCCc1ccccn1 | inactive: 45.5% |

| Compound | inhibition |
| --- | --- |
| CCCc1cc(=O)[nH]c(SCC(=O)c2c(N)n(CC(C)C)c(=O)n(C)c2=O)n1 | active: 61.7% |
| C[C@@H]1CN([C@@H](C)CO)C(=O)Cc2cc(N(C)C)ccc2O[C@@H]1CN(C)Cc1ccc(C(=O)Nc2ccccc2N)cc1 | inconclusive: 55.8% |
| C[C@@H]1CN([C@@H](C)CO)C(=O)c2cccc(NC(=O)NC3CCCCC3)c2O[C@@H]1CN(C)Cc1ccc(C(=O)Nc2ccccc2N)cc1 | inconclusive: 56.5% |
| COc1ccc(-n2nnnc2SCC(=O)NC2CCS(=O)(=O)C2)cc1 (stereo not given) | inactive: 4.01% |
| COc1cc(OC)c2c(-c3cccc(-c4cccc(N)c4)c3)cc(=O)oc2c1 | inconclusive: 51.9% |
| O=C(CN1CCOCC1)NCC[C@H]1CC[C@@H](NC(=O)Nc2ccccc2)[C@H](CO)O1 | inactive: 1.55% |
| NS(=O)(=O)c1ccc(CCNC(=O)CNC(=O)c2ccc(F)cc2)cc1 | inactive: 2.16% |
| CCOc1ncccc1C(=O)N1CCN(c2cccc(C)c2C)CC1 | inconclusive: 55.8% |
| O=C(C[C@@H]1C/C=C/CC[C@H](Cc2ccc(F)cc2)C(=O)OC[C@@H](Cc2ccccc2)NC1=O)N[C@H](CO)Cc1ccccc1 | inconclusive: 50.6% |
| COc1ccc2c3c([nH]c2c1)[C@H](CO)N(C(=O)Nc1ccc(F)cc1)CC31CCN(CC2CCOCC2)CC1 | inconclusive: 50.1% |
| COc1cc(C(=O)c2ccc3c(c2)OCO3)cc(OC)c1OC | inconclusive: 50.2% |
| COc1ccc(Br)cc1/C=C/C(=O)c1ccc(NC(C)=O)cc1 | inconclusive: 54.7% |
| O=C(CCl)Nc1cc(S(=O)(=O)N2CCCCCC2)ccc1Cl | inconclusive: 50.7% |
| O=C(Nc1ccccc1F)N1CC(=O)N2[C@H](C1)[C@@H](c1ccc(C#CC3CC3)cc1)[C@@H]2CO | inconclusive: 50.1% |
| C[C@H]1CCCCO[C@H](CN(C)C(=O)C2CCCCC2)[C@@H](C)CN([C@@H](C)CO)C(=O)c2cc(NC(=O)Nc3cccc4ccccc34)ccc2O1 | inconclusive: 52% |
| CCN1Cc2c(/C=C/c3ccccc3)nc3ccc(OC)cc3c2N(c2cccc(Cl)c2)C1 | inconclusive: 50.3% |
| O=C(C[C@@H]1C[C@H]2c3cc(NC(=O)CC4CC4)ccc3O[C@H]2[C@H](CO)O1)NCc1ccccc1F | active: 56% |
| COc1ccc(C(=O)O)c(OC)n1 | inactive: 14.3% |
| COc1ccc(CN(C)C[C@H]2OCCCC[C@H](C)Oc3ccc(NC(=O)Nc4cccc5ccccc45)cc3C(=O)N([C@H](C)CO)C[C@H]2C)cc1 | active: 69.6% |
| Cc1ccc(S(=O)(=O)Nc2ccc3c(c2)CC(=O)N([C@H](C)CO)C[C@H](C)[C@@H](CN(C)CC2CCCCC2)O3)cc1 | inactive: 1.64% |
| COc1ccc(/C=C2/CSC/C(=C/c3ccc(OC)c(OC)c3)C2=O)cc1OC | active: 65.7% |
| N#Cc1nc(-c2ccc(OCc3ccc(Cl)cc3)cc2)oc1N1CCC(C(N)=O)CC1 | inactive: 8.41% |
| O=C1CC(c2cccc(Cl)c2)c2cc3c(cc2N1)CCC3 (stereo not given) | inconclusive: 51.1% |
| COc1cc(OC)c(N2CC(C(=O)Nc3cc(Cl)ccc3N3CCOCC3)CC2=O)cc1Cl (stereo not given) | inconclusive: 50.7% |
| C[C@@H]1CN([C@H](C)CO)C(=O)c2cc(NS(=O)(=O)c3ccc(F)cc3)ccc2O[C@@H](C)CCCCO[C@@H]1CN(C)C(=O)NC1CCCCC1 | inconclusive: 52.3% |
